{"source": "patent US20190077766A1", "about": "“Compositions For APP-Selective BACE Inhibition And Uses Therefor” (NantNeuro, LLC, priority 2015, published 2019)", "molecular_target": "T1, BACE1 (Homo sapiens, UniProt P56817)", "T1 construct": "purchased R&D 931-AS-050", "T1 sequence (P56817 46-457 limits assumed)": "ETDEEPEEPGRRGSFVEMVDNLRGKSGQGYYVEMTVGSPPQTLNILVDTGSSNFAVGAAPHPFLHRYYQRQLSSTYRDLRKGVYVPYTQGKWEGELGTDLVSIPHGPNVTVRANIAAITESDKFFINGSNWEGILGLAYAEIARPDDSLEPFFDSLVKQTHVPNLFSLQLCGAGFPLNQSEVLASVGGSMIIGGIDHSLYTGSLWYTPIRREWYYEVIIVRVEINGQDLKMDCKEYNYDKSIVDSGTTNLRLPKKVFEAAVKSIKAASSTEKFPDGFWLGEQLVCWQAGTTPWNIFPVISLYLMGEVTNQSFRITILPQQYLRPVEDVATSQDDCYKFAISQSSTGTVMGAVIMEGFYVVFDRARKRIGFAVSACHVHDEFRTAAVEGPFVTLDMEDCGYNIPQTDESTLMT", "test": "in vitro BACE inhibition assay (Primary BACE1 IC50)", "type": "biochemical", "conditions": "Table 4; several values in a cell = several determinations", "excerpt": "ABBI Assay: APP Binding BACE Inhibitor (ABBI) activity of any of the compounds described herein can readily be verified using, for example, assays described herein. Basically, in certain embodiments a pair the assays are utilized to identify ABBI compounds that inhibit BACE cleavage of the MBP-C125 APP substrate, resulting in the inhibition of the production of C99 and the β-site peptide substrate (P5-P5′) and also interacts with APP, for example, as measured by surface plasmon resonance (SPR) analysis. In one illustrative embodiment, an MBP-C125 APP695 wt fusion protein can be used as one of the substrates and the second substrate can be the commercially available P5-P5′ fluorescence substrate.", "note": "A number of entries come with more than one value. This is not the full list of results. The source may hold further records. The values listed for one entry appear to be repeats (runs, samples, wells or individuals); a mean can stand among them."}
{"smiles": "Cc1cc(C2(c3cc(F)cc(F)c3)N=C(N)N(C)C2=O)ccc1OC(F)F", "note": "(centres unmarked) [FAH-03]", "values": [{"measurement": "IC50", "value": "530 nM, 4.5 µM, 5.7 µM [one cell]"}]}
{"smiles": "Cc1cc(C2(c3cccc(F)c3)N=C(N)N(C)C2=O)ccc1OC(F)F", "note": "(centres unmarked) [FAH-17]", "values": [{"measurement": "IC50", "value": "150 nM, 90 nM, 370 nM, 780 nM, 1.3 µM, 820 nM [one cell]"}]}
